# Laboratory results reported in the supplement of paper PMC8728848.
# This is one part of the list.
# B1: SSP1 (Sclerotinia sclerotiorum), XP_001584968 (protein)
# chain: MGSSHHHHHHSSGLVPRGSHMSLLTTELACTSAPDQVLHLFFQDGQNILEARSPDGGNVWTTQDTIIAKDGDYNGSSMTCYYVDKDANFDNQPSIHLLYMNKDKQLTEKVKRMKGDNPIWEDAKVPDEVRKGPEQYSKLTSGSFNQGTGWNPNGSQWAYFSASKDGKMGIVEIRRTPKDPWHTETILEEKWGDELPGTALACVIGNGKIRVFLQHHDYSIILYENQNNTWHDRGTFIPKDKVQATTPLACTMTKDGSVHLFYVSKSNKIIHCTDGKKEEELINFFPGSKLGATSVENKITLFFRNLNPVNEVGTLENENGSWKHGTTVIPA
# What was measured:
# Test in all cases: glycan array binding signal (z-score within array); higher = stronger binding
# Conditions in all cases: glycan notation: IUPAC condensed, linker removed
# Gal(a1-3)GalNAc = biological target: Gal(a1-3)GalNAc
# How it was run: (§1)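 Negative Z-scores can be read as non-binding. The Z-score is calculated within each array and then averaged across arrays of one protein sequence at different concentrations or buffers and across linkers. Arrays, 3228 in all, were curated from the Consortium for Functional Glycomics database and kept only where the protein sequence was available.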
# [1] = biological target: Gal(a1-3)[Gal(a1-4)]Gal(b1-4)GlcNAc
# How it was run: as §1
# [2] = biological target: Gal(a1-4)Gal(b1-3)GlcNAc(b1-2)Man(a1-3)[Gal(a1-4)Gal(b1-3)GlcNAc(b1-2)Man(a1-6)]Man(b1-4)GlcNAc(b1-4)GlcNAc
# How it was run: as §1
# Gal(a1-4)Gal(b1-4)Glc = biological target: Gal(a1-4)Gal(b1-4)Glc
# How it was run: as §1
# Gal(a1-4)Gal(b1-4)GlcNAc = biological target: Gal(a1-4)Gal(b1-4)GlcNAc
# How it was run: as §1
# [3] = biological target: Gal(a1-4)Gal(b1-4)GlcNAc(b1-2)Man(a1-3)[Gal(a1-4)Gal(b1-4)GlcNAc(b1-2)Man(a1-6)]Man(b1-4)GlcNAc(b1-4)GlcNAc
# How it was run: as §1
# [4] = biological target: Gal(a1-4)Gal(b1-4)GlcNAc(b1-3)Gal(b1-4)Glc
# How it was run: as §1
# Gal(a1-4)GlcNAc = biological target: Gal(a1-4)GlcNAc
# How it was run: as §1
# Gal(a1-6)Glc = biological target: Gal(a1-6)Glc
# How it was run: as §1
# Gal(b1-2)Gal = biological target: Gal(b1-2)Gal
# How it was run: as §1
# Gal(b1-3)Gal = biological target: Gal(b1-3)Gal
# How it was run: as §1
# Gal(b1-3)Gal(b1-4)GlcNAc = biological target: Gal(b1-3)Gal(b1-4)GlcNAc
# How it was run: as §1
# Gal(b1-3)GalNAc = biological target: Gal(b1-3)GalNAc
# How it was run: as §1
# [5] = biological target: Gal(b1-3)GalNAc(a1-3)[Fuc(a1-2)]Gal(b1-4)Glc
# How it was run: as §1
# [6] = biological target: Gal(b1-3)GalNAc(a1-3)[Fuc(a1-2)]Gal(b1-4)GlcNAc
# How it was run: as §1
# Gal(b1-3)GalNAc(b1-3)Gal = biological target: Gal(b1-3)GalNAc(b1-3)Gal
# How it was run: as §1
# [7] = biological target: Gal(b1-3)GalNAc(b1-3)Gal(a1-4)Gal(b1-4)Glc
# How it was run: as §1
# [8] = biological target: Gal(b1-3)GalNAc(b1-4)Gal(b1-4)Glc
# How it was run: as §1
# [9] = biological target: Gal(b1-3)GalNAc(b1-4)[Neu5Ac(a2-3)]Gal(b1-4)Glc
# How it was run: as §1
# Gal(b1-3)GlcNAc = biological target: Gal(b1-3)GlcNAc
# How it was run: as §1
# [10] = biological target: Gal(b1-3)GlcNAc(a1-3)Gal(b1-4)GlcNAc
# How it was run: as §1
# [11] = biological target: Gal(b1-3)GlcNAc(a1-6)Gal(b1-4)GlcNAc
# How it was run: as §1
# Gal(b1-3)GlcNAc(b1-2)Man = biological target: Gal(b1-3)GlcNAc(b1-2)Man
# How it was run: as §1
# [12] = biological target: Gal(b1-3)GlcNAc(b1-2)Man(a1-3)[Gal(b1-3)GlcNAc(b1-2)Man(a1-6)]Man(b1-4)GlcNAc(b1-4)GlcNAc
# How it was run: as §1
# [13] = biological target: Gal(b1-3)GlcNAc(b1-2)Man(a1-3)[Gal(b1-3)GlcNAc(b1-2)Man(a1-6)]Man(b1-4)GlcNAc(b1-4)[Fuc(a1-6)]GlcNAc
# How it was run: as §1
# [14] = biological target: Gal(b1-3)GlcNAc(b1-2)Man(a1-3)[GlcNAc(b1-4)][Gal(b1-3)GlcNAc(b1-2)Man(a1-6)]Man(b1-4)GlcNAc(b1-4)GlcNAc
# How it was run: as §1
# [15] = biological target: Gal(b1-3)GlcNAc(b1-2)[Gal(b1-3)GlcNAc(b1-6)]Man(a1-6)[Gal(b1-3)GlcNAc(b1-2)Man(a1-3)]Man(b1-4)GlcNAc(b1-4)GlcNAc
# How it was run: as §1
# [16] = biological target: Gal(b1-3)GlcNAc(b1-3)Gal(b1-3)GlcNAc
# How it was run: as §1
# [17] = biological target: Gal(b1-3)GlcNAc(b1-3)Gal(b1-4)Glc
# How it was run: as §1
# [18] = biological target: Gal(b1-3)GlcNAc(b1-3)Gal(b1-4)GlcNAc
# How it was run: as §1
# [19] = biological target: Gal(b1-3)GlcNAc(b1-3)Gal(b1-4)GlcNAc(b1-2)Man(a1-3)[Gal(b1-3)GlcNAc(b1-3)Gal(b1-4)GlcNAc(b1-2)Man(a1-6)]Man(b1-4)GlcNAc(b1-4)GlcNAc
# How it was run: as §1
# [20] = biological target: Gal(b1-3)GlcNAc(b1-3)Gal(b1-4)GlcNAc(b1-2)[Gal(b1-3)GlcNAc(b1-3)Gal(b1-4)GlcNAc(b1-6)]Man(a1-6)[Gal(b1-3)GlcNAc(b1-3)Gal(b1-4)GlcNAc(b1-2)Man(a1-3)]Man(b1-4)GlcNAc(b1-4)[Fuc(a1-6)]GlcNAc
# How it was run: as §1
# [21] = biological target: Gal(b1-3)GlcNAc(b1-3)Gal(b1-4)GlcNAc(b1-3)Gal(b1-4)GlcNAc(b1-2)[Gal(b1-3)GlcNAc(b1-3)Gal(b1-4)GlcNAc(b1-3)Gal(b1-4)GlcNAc(b1-6)]Man(a1-6)[Gal(b1-3)GlcNAc(b1-3)Gal(b1-4)GlcNAc(b1-3)Gal(b1-4)GlcNAc(b1-2)Man(a1-3)]Man(b1-4)GlcNAc(b1-4)[Fuc(a1-6)]GlcNAc
# How it was run: as §1
# [22] = biological target: Gal(b1-3)GlcNAc(b1-3)Gal(b1-4)GlcNAc(b1-6)[Gal(b1-3)GlcNAc(b1-3)]Gal(b1-4)Glc
# How it was run: as §1
# [23] = biological target: Gal(b1-3)GlcNAc(b1-3)Gal(b1-4)[Fuc(a1-3)]GlcNAc
# How it was run: as §1
# [24] = biological target: Gal(b1-3)GlcNAc(b1-3)Gal(b1-4)[Fuc(a1-3)]GlcNAc(b1-6)[Gal(b1-3)GlcNAc(b1-3)]Gal(b1-4)Glc
# How it was run: as §1
# [25] = biological target: Gal(b1-3)GlcNAc(b1-3)GalNAc
# How it was run: as §1
# [26] = biological target: Gal(b1-3)GlcNAc(b1-6)Gal(b1-4)GlcNAc
# How it was run: as §1
binder,measurement,setting,value
B1,glycan array binding signal (z-score),Gal(a1-3)GalNAc,0.281
same,glycan array binding signal (z-score),[1],2.85
same,glycan array binding signal (z-score),[2],0.003
same,glycan array binding signal (z-score),Gal(a1-4)Gal(b1-4)Glc,0.063
same,glycan array binding signal (z-score),Gal(a1-4)Gal(b1-4)GlcNAc,-0.009
same,glycan array binding signal (z-score),[3],0.593
same,glycan array binding signal (z-score),[4],-0.235
same,glycan array binding signal (z-score),Gal(a1-4)GlcNAc,-0.456
same,glycan array binding signal (z-score),Gal(a1-6)Glc,-0.393
same,glycan array binding signal (z-score),Gal(b1-2)Gal,0.5
same,glycan array binding signal (z-score),Gal(b1-3)Gal,0.017
same,glycan array binding signal (z-score),Gal(b1-3)Gal(b1-4)GlcNAc,-0.589
same,glycan array binding signal (z-score),Gal(b1-3)GalNAc,-0.111
same,glycan array binding signal (z-score),[5],-0.29
same,glycan array binding signal (z-score),[6],3.1
same,glycan array binding signal (z-score),Gal(b1-3)GalNAc(b1-3)Gal,-0.512
same,glycan array binding signal (z-score),[7],-0.113
same,glycan array binding signal (z-score),[8],-0.197
same,glycan array binding signal (z-score),[9],-0.812
same,glycan array binding signal (z-score),Gal(b1-3)GlcNAc,0.089
same,glycan array binding signal (z-score),[10],-0.511
same,glycan array binding signal (z-score),[11],-0.495
same,glycan array binding signal (z-score),Gal(b1-3)GlcNAc(b1-2)Man,-0.198
same,glycan array binding signal (z-score),[12],1.07
same,glycan array binding signal (z-score),[13],5.12
same,glycan array binding signal (z-score),[14],-0.377
same,glycan array binding signal (z-score),[15],-0.073
same,glycan array binding signal (z-score),[16],-0.401
same,glycan array binding signal (z-score),[17],-0.397
same,glycan array binding signal (z-score),[18],0.056
same,glycan array binding signal (z-score),[19],-0.174
same,glycan array binding signal (z-score),[20],0.163
same,glycan array binding signal (z-score),[21],0.7
same,glycan array binding signal (z-score),[22],-0.487
same,glycan array binding signal (z-score),[23],-0.451
same,glycan array binding signal (z-score),[24],-0.483
same,glycan array binding signal (z-score),[25],-0.435
same,glycan array binding signal (z-score),[26],-0.416
